Several values for one entry are separate records, joined by “and”; a condition that tells them apart may be missing. Equal values may be shown once. This list was built around the results that the source calls inconclusive (neither active nor inactive); the mix of calls is not that of the screen. For part of these data: Potencies beside an inconclusive call are fits to weak or partial responses and may not hold up. Some compounds were tested as several samples or in several runs, with calls that do not always agree. Activity calls are given as the source filed them. Unless noted, the call rests on the fitted dose curve; in most records, active means well fitted curve in the direction sought with a large enough effect in the repeat runs; inconclusive means weak or mixed curves; inactive means no such curve, though single readings can be large; an effect the other way counts as inactive or inconclusive.
Legend:
[1] = qHTS assay to identify small molecule that activate the aryl hydrocarbon receptor (AhR) signaling pathway - cell viability counter screen (AID 743086); further: potency means the concentration at half of the fitted maximal effect; nearly all actives have a fitted effect of over 45% in size
Method in brief: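 Cytotoxicity counter screen: CellTiter-Fluor signal (30 min, 37 C) in 4000 HepG2 cells/well carrying the DRE-luciferase reporter, following 24 h compound exposure at 37 C.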

[2] = target: Peroxisome proliferator-activated receptor gamma (Homo sapiens) (UniProt P37231); test: qHTS assay to identify small molecule agonists of the peroxisome proliferator-activated receptor gamma (PPARg) signaling pathway (AID 743094; active means well fitted activation curve with a large enough effect in the signal ratio in the repeat runs, not every such curve was filed as active; inconclusive means weak or mixed curves, or effect the other way; inactive means no such curve, though single readings can be large or run the other way; the % refers to the signal ratio; further: potency means the concentration at half of the fitted maximal effect); conditions: HEK293H PPARg-UAS-bla, beta-lactamase FRET ratio, 17 h; activation: at 57 µM (top of the series) unless noted
UniProt P37231, sequence (P37231 whole entry, looked up): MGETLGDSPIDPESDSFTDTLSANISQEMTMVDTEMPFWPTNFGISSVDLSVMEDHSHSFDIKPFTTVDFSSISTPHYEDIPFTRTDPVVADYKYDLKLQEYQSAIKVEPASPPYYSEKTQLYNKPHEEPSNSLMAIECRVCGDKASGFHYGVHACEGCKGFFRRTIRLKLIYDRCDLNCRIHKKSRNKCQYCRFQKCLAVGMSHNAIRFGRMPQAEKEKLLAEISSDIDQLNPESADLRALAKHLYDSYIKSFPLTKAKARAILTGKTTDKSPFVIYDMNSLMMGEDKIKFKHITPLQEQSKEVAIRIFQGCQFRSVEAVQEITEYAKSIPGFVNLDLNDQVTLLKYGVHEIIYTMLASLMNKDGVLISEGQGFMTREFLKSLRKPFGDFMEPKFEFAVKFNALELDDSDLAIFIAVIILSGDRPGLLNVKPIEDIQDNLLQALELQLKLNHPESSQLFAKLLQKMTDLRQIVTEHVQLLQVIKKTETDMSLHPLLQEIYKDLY
Method in brief: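 Agonism was assessed in a beta-lactamase reporter system, HEK293H cells with a stably integrated UAS-bla construct under PPARg control; the 17 h treatment at 37C preceded a 1 h room-temperature FRET substrate read.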

[3] = target: Peroxisome proliferator-activated receptor gamma (Homo sapiens) (UniProt P37231); test: qHTS assay to identify small molecule antagonists of the peroxisome proliferator-activated receptor gamma (PPARg) signaling pathway (AID 743191; calls by dose curve; further: potency means the concentration at half of the fitted maximal effect; nearly all actives have a fitted effect of over 30% in size); conditions: HEK293H PPARg-UAS-bla, beta-lactamase ratio, antagonist, 17 h; ratio activity, negative = inhibition: at 62.6 µM (top of the series) unless noted
Method in brief: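 Beta-lactamase reporter under UAS control in HEK293H PPARg-bla cells; compound treatment 17 h at 37C. Read-out: fluorescence intensity after 1 h room-temperature incubation with LiveBLAzer B/G FRET substrate.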

[4] = qHTS assay for small molecule agonists of the antioxidant response element (ARE) signaling pathway (AID 743202; active means well fitted activation curve with a large enough effect in the signal ratio in the repeat runs, not every such curve was filed as active; inconclusive means weak or mixed curves, or effect the other way; inactive means no such curve, though single readings can be large or run the other way; the % refers to the signal ratio; further: potency means the concentration at half of the fitted maximal effect); conditions: HepG2 ARE-bla reporter, beta-lactamase FRET, 16 h; activation: at 73.3 µM (top of the series) unless noted
Method in brief: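 After 16 hours of compound treatment at 37 C, HepG2 cells with a stably integrated ARE-driven beta-lactamase reporter were loaded 2 hours at room temperature with LiveBLAzer B/G FRET substrate and fluorescence intensity measured.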

[5] = qHTS assay to identify small molecule agonists of the peroxisome proliferator-activated receptor delta (PPARd) signaling pathway - cell viability counter screen (AID 743211); conditions: PPARd-bla HEK293H viability, CellTiter-Glo luminescence, 17 h; activity change, negative = cytotoxicity: at 62.6 µM (top of the series) unless noted; further: potency means the concentration at half of the fitted maximal effect; nearly all actives have a fitted effect of over 55% in size
Method in brief: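 Following 5 h plating at 37 C and 5% CO2, PPARd UAS-bla HEK293H cells took up test compounds for 17 h. Viability was quantified by luminescence 30 min after CellTiter-Glo addition at room temperature.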

[6] = target: Peroxisome proliferator-activated receptor delta (Homo sapiens) (UniProt Q03181); test: qHTS assay to identify small molecule agonists of the peroxisome proliferator-activated receptor delta (PPARd) signaling pathway (AID 743212; calls by dose curve; further: on the % scale 0 is the no-effect control and ±100 the full control effect); conditions: HEK293H PPARd-UAS-bla, beta-lactamase FRET ratio, 17 h; activation: at 62.6 µM (top of the series) unless noted
UniProt Q03181, sequence (Q03181 whole entry, looked up): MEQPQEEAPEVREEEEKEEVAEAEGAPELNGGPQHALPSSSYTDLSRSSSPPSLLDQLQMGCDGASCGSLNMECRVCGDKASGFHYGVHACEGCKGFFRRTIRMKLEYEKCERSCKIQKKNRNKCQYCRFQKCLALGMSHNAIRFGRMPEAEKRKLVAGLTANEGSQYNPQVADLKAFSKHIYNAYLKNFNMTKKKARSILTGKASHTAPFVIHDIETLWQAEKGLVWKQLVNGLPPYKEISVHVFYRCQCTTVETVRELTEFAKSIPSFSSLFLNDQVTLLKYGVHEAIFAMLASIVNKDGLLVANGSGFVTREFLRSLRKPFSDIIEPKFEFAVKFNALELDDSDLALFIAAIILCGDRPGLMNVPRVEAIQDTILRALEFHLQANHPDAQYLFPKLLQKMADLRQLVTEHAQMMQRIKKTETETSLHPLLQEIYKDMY
Method in brief: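 Beta-lactamase reporter readout: a ratiometric FRET signal from the LiveBLAzer substrate after 2 h at room temperature. Compound exposure at 37 °C in PPARδ-bla HEK293H cells driven by an upstream activator sequence.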

[7] = qHTS assay to identify small molecule antagonists of the peroxisome proliferator-activated receptor delta (PPARd) signaling pathway - cell viability counter screen (AID 743213); conditions: PPARd-bla HEK293H viability, CellTiter-Glo luminescence, 17 h; viability change, negative = cytotoxic: at 62 µM (top of the series) unless noted; further: potency means the concentration at half of the fitted maximal effect; nearly all actives have a fitted effect of over 50% in size
Method in brief: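 CellTiter-Glo was added to PPARd-bla HEK293H wells following 17 h compound treatment in the presence of 300 nM L165041. Luminescence was recorded after 30 min at room temperature.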

[8] = target: Peroxisome proliferator-activated receptor delta (Homo sapiens) (UniProt Q03181); test: qHTS assay to identify small molecule antagonists of the peroxisome proliferator-activated receptor delta (PPARd) signaling pathway (AID 743215; active means well fitted inhibition curve with a large enough effect in the signal ratio in the repeat runs, not every such curve was filed as active; inconclusive means weak or mixed curves, or effect the other way; inactive means no such curve, though single readings can be large or run the other way; the % refers to the signal ratio;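 further: cells stimulated with agonist L165041 at 300 nM final during compound exposure; potency means the concentration at half of the fitted maximal effect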); conditions: HEK293H PPARd-UAS-bla, beta-lactamase FRET ratio, antagonist, 17 h; ratio activity, negative = inhibition: at 62 µM (top of the series) unless noted
Method in brief: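 Here, a reporter line (HEK293H, beta-lactamase under a UAS) measures PPARd signaling. Compounds are tested against agonist L165041 at 300 nM final concentration over 17 h at 37 C, with fluorescence read after substrate.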

[9] = target: Bile acid receptor (Homo sapiens) (UniProt Q96RI1); test: qHTS assay to identify small molecule antagonists of the farnesoid-X-receptor (FXR) signaling pathway (AID 743217; active means well fitted inhibition curve with a large enough effect in the signal ratio in the repeat runs, not every such curve was filed as active; inconclusive means weak or mixed curves, or effect the other way; inactive means no such curve, though single readings can be large or run the other way; the % refers to the signal ratio; further: potency means the concentration at half of the fitted maximal effect; on activity change, negative = inhibition: on the % scale 0 is the no-effect control and ±100 the full control effect); conditions: HEK293T FXR-UAS-bla, beta-lactamase ratio, CDCA-stimulated, 16 h; activity change, negative = inhibition: at 62.6 µM (top of the series) unless noted
UniProt Q96RI1, sequence (Q96RI1 whole entry, looked up): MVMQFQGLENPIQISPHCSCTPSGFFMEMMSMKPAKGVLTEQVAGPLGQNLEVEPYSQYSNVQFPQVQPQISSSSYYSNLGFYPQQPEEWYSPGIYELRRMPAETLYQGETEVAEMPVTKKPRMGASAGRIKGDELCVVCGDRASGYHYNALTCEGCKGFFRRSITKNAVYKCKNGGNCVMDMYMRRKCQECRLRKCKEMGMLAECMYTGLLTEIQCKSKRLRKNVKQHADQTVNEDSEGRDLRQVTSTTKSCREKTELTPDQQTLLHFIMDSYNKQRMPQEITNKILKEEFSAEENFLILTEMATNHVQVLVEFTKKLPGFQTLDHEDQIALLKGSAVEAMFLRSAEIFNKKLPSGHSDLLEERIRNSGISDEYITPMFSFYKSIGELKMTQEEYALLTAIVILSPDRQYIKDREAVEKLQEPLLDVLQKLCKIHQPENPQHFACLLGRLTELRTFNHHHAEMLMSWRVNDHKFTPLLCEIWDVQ
Method in brief: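 Test compounds are pin-transferred onto FXR-bla HEK 293T cells, then chenodeoxycholic acid is added at 50 uM final. After 16 h at 37 °C, LiveBLAzer B/G substrate is applied for 2 h at room temperature and fluorescence read.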

[10] = qHTS assay to identify small molecule agonists of the farnesoid-X-receptor (FXR) signaling pathway - cell viability counter screen (AID 743218); conditions: FXR-bla HEK293T viability, CellTiter-Glo luminescence, 16 h; viability change, negative = cytotoxic: at 62.6 µM (top of the series) unless noted; further: potency means the concentration at half of the fitted maximal effect; nearly all actives have a fitted effect of over 45% in size
Method in brief: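 Quantitative HTS counter screen measuring ATP-based viability via CellTiter-Glo luminescence in HEK 293T cells carrying a UAS-driven beta-lactamase reporter, after 16 h compound exposure at 37 C.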

[11] = qHTS assay to identify small molecule antagonists of the farnesoid-X-receptor (FXR) signaling pathway - cell viability counter screen (AID 743221; active means well fitted cell-killing curve with a large enough effect in the repeat runs, not every such curve was filed as active; inconclusive means weak or mixed curves, or effect the other way; inactive means no such curve, though single readings can be large or run the other way; further: potency means the concentration at half of the fitted maximal effect; nearly all actives have a fitted effect of over 50% in size); conditions: FXR-bla HEK293T viability, CellTiter-Glo luminescence, 16 h; activity change, negative = cytotoxicity: at 62.6 µM (top of the series) unless noted
Method in brief: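 Compound effects on cell number were measured as CellTiter-Glo luminescence in HEK 293T cells expressing FXR-UAS-bla, after 16 h at 37 C with 50 uM CDCA (final).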

[12] = target: Vitamin D3 receptor (Homo sapiens) (UniProt P11473); test: qHTS assay to identify small molecule antagonists of the vitamin D receptor (VDR) signaling pathway (AID 743223; active means well fitted inhibition curve with a large enough effect in the signal ratio in the repeat runs, not every such curve was filed as active; inconclusive means weak or mixed curves, or effect the other way; inactive means no such curve, though single readings can be large or run the other way; the % refers to the signal ratio; further: potency means the concentration at half of the fitted maximal effect); conditions: VDR-UAS-bla HEK293T, beta-lactamase FRET ratio, 16 h; activity change, negative = inhibition: at 61 µM (top of the series) unless noted
UniProt P11473, sequence (P11473 whole entry, looked up): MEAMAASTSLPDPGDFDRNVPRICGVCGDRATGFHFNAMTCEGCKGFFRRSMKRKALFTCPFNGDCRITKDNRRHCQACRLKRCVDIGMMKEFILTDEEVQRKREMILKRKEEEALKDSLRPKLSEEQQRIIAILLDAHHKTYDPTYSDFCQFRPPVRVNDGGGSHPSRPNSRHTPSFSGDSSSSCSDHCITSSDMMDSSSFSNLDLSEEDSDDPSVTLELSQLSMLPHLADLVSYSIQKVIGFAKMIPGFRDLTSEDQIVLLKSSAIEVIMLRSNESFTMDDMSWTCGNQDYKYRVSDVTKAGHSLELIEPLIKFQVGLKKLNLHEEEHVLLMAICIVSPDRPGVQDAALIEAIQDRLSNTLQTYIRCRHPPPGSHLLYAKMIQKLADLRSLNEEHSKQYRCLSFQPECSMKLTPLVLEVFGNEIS
Method in brief: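 Beta-lactamase activity in VDR-bla cells is measured by FRET substrate fluorescence (2 h, room temperature) after cells spend 16 h at 37C with test compound and 3 nM final 1alpha,25-dihydroxyvitamin D3.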

[13] = qHTS assay to identify small molecule antagonists of the peroxisome proliferator-activated receptor gamma (PPARg) signaling pathway - cell viability counter screen (AID 743194); conditions: PPARg-bla HEK293H viability, CellTiter-Glo luminescence, 17 h, co-treated with 50 nM rosiglitazone; activity change, negative = cytotoxicity: at 62.6 µM (top of the series) unless noted; further: potency means the concentration at half of the fitted maximal effect; nearly all actives have a fitted effect of over 55% in size
Method in brief: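 Viability was measured as CellTiter-Glo luminescence in GeneBLAzer PPARg UAS-bla HEK293H cells. These cells had been exposed 17 h at 37 C to compounds together with rosiglitazone at 50 nM final, with the beta-lactamase readout taken in the same wells.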

[14] = qHTS assay for small molecule agonists of the antioxidant response element (ARE) signaling pathway - cell viability counter screen (AID 743203; calls by dose curve; further: potency means the concentration at half of the fitted maximal effect; nearly all actives have a fitted effect of over 55% in size); conditions: ARE-bla HepG2 viability, CellTiter-Glo luminescence, 16 h; viability change, negative = cytotoxic: at 73.3 µM (top of the series)
Method in brief: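 ATP content via CellTiter-Glo luminescence served as the viability measure. Cells: ARE-bla HepG2, 2,000 per well. Exposure: 16 hrs, 37C/5% CO2.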

[15] = qHTS assay to identify small molecule agonists of the vitamin D receptor (VDR) signaling pathway - cell viability counter screen (AID 743224); conditions: VDR-bla HEK293T viability, CellTiter-Glo luminescence, 16 h; activity change, negative = cytotoxicity: at 62.6 µM (top of the series); further: potency means the concentration at half of the fitted maximal effect; nearly all actives have a fitted effect of over 50% in size
Method in brief: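 CellTiter-Glo viability readout on VDR-bla cells, measured after 16 h of compound treatment at 37C in the same wells.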

[16] = qHTS assay for small molecule activators of the heat shock response signaling pathway - cell viability counter screen (AID 743209); conditions: HSE-bla HeLa viability, CellTiter-Glo luminescence, 5 h; activity change, negative = cytotoxicity: at 62.6 µM (top of the series) unless noted; further: nearly all actives have a fitted effect of over 50% in size; further: potency means the concentration at half of the fitted maximal effect; on activity change, negative = cytotoxicity: on the % scale 0 is the no-effect control and ±100 the full control effect
Method in brief: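 Compounds dissolved in DMSO were added to overnight-plated HSE-bla HeLa cells and left 5 h at 37 C. Cell viability was quantified by luminescence using CellTiter-Glo.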

[17] = qHTS assay for small molecule activators of the heat shock response signaling pathway (AID 743210; active means well fitted activation curve with a large enough effect in the signal ratio in the repeat runs, with a control signal flat, not every such curve was filed as active; inconclusive means weak or mixed curves; the % refers to the signal ratio; further: potency means the concentration at half of the fitted maximal effect); conditions: HeLa HSE-bla reporter, beta-lactamase ratio, 5 h; activation: at 62.6 µM (top of the series) unless noted
Method in brief: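 Compound exposure lasted 5 h at 37 C in HeLa cells carrying a heat-shock-element-driven beta-lactamase reporter. Read-out: fluorescence intensity after 2.5 h room-temperature loading with LiveBLAzer B/G FRET substrate.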

[18] = target: Bile acid receptor (Homo sapiens) (UniProt Q96RI1); test: qHTS assay to identify small molecule agonists of the farnesoid-X-receptor (FXR) signaling pathway (AID 743220; active means well fitted activation curve with a large enough effect in the signal ratio in the repeat runs, not every such curve was filed as active; inconclusive means weak or mixed curves, or effect the other way; the % refers to the signal ratio; further: potency means the concentration at half of the fitted maximal effect); conditions: HEK293T FXR-UAS-bla, beta-lactamase FRET ratio, 16 h; activation: at 62.6 µM (top of the series) unless noted
Method in brief: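 FXR-UAS-bla HEK 293T cells carrying a UAS-driven beta-lactamase reporter were plated for 5 h at 37C/5% CO2, then exposed to DMSO-dissolved Tox21 10K compounds for 16 h at 37C. A LiveBLAzer B/G FRET substrate was loaded for 2 h at room temperature before fluorescence reading.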

[19] = target: Vitamin D3 receptor (Homo sapiens) (UniProt P11473); test: qHTS assay to identify small molecule agonists of the vitamin D receptor (VDR) signaling pathway (AID 743222; calls by dose curve; further: potency means the concentration at half of the fitted maximal effect; on activation: on the % scale 0 is the no-effect control and ±100 the full control effect); conditions: HEK293T VDR-UAS-bla, beta-lactamase FRET ratio, 16 h; activation: at 63.5 µM (top of the series) unless noted
Method in brief: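 Tox21 cell reporter format: VDR-bla line, 16 h compound exposure in 5% CO2 at 37C, then fluorescence intensity after 2 h with LiveBLAzer B/G FRET substrate.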
Tags describe the fitted curve by direction and shape or compound fluorescence and quenching.

COc1ccc2cc(S(=O)(=O)N[C@H](CC(=O)N[C@H](Cc3ccc(CN4[C@H](C)CCC[C@@H]4C)cc3)C(=O)N(C)C(C)C)c3ccc4c(c3)OCO4)ccc2c1
inconclusive: Potency [2] 3.68 µM [rising, full curve, poor fit] | Potency [3] 41.3 µM [rising, partial curve] | Potency [4] 64.9 µM [falling, single point] | activation [6] 10.9% | Potency [8] 36.8 µM [inhibitor, partial curve, poor fit] | Potency [9] 52 µM | Potency [12] 52 µM
active: Potency [1] 23 µM | Potency [5] 14.7 µM | Potency [7] 29.2 µM | Potency [10] 26.1 µM | Potency [11] 52 µM

CNC(=O)c1cc(Oc2ccc(NC(=O)Nc3ccc(Cl)c(C(F)(F)F)c3)cc2)ccn1
inactive: Potency [6]
active: Potency [1] 18.8 µM | Potency [3] 10.6 µM | Potency [13] 18.8 µM | Potency [7] 10.6 µM | Potency [10] 21.1 µM | Potency [15] 23.7 µM
inconclusive: Potency [2] 16.9 µM [cytotoxic, partial curve] | Potency [4] 9.44 µM | Potency [14] 6.68 µM [cytotoxic, partial curve] | Potency [8] 3.35 µM | Potency [9] 18.8 µM [rising, partial curve, poor fit] | Potency [12] 26.8 µM

Nc1ccc(O)cc1
25.5 µM (active) and inactive: Potency [16]
active: Potency [10] 25.5 µM | Potency [18] 20.3 µM
inconclusive: Potency [1] 13.3 µM [falling, partial curve] | Potency [2] 3.01 µM [activator, full curve, poor fit] and 24.5 µM [fluorescent] | Potency [3] 1.81 µM [activator, full curve, poor fit] | Potency [13] 57.1 µM [cytotoxic] | Potency [17] 37.4 µM | Potency [5] 14.3 µM [cytotoxic, full curve] | activity change, negative = inhibition [9] -22.8% [at 81.1 µM] | Potency [11] 57.1 µM [falling, single point] | Potency [19] 57.1 µM [rising, partial curve, poor fit] | activation [19] 0.259% | Potency [12] 22.7 µM [rising, partial curve, poor fit] | Potency [15] 12.8 µM [cytotoxic, full curve]

CCCCCCCCCCCCCC[n+]1ccccc1
active: Potency [1] 54.5 µM | Potency [14] 27.3 µM | Potency [16] 30.9 µM | Potency [7] 24.5 µM | Potency [11] 54.9 µM | Potency [12] 43.6 µM
inconclusive: activation [2] -20.7% | Potency [3] 61.6 µM [cytotoxic, single point] | Potency [4] 61.1 µM [falling, partial curve] | Potency [17] 57.1 µM [cytotoxic] | Potency [8] 24.5 µM [rising, partial curve] | Potency [9] 54.9 µM | Potency [10] 54.9 µM [cytotoxic] | Potency [18] 61.6 µM [single point] | Potency [19] 19.5 µM [partial curve]

c1cc(N(CC2CO2)CC2CO2)ccc1OCC1CO1 (stereo unspecified)
inconclusive: Potency [1] 61.2 µM [falling, single point] and 68.6 µM [falling, single point] | Potency [3] 55 µM [fluorescent, single point] and 43.6 µM [fluorescent, partial curve] | Potency [13] 61.7 µM [cytotoxic, single point] and 54.9 µM [cytotoxic, partial curve, poor fit] | Potency [16] 49 µM [cytotoxic, single point] and 49 µM [cytotoxic, partial curve] | Potency [17] 58.3 µM and 29.7 µM | Potency [5] 61.7 µM [cytotoxic, single point] and 54.9 µM [cytotoxic, single point] | Potency [10] 55 µM [cytotoxic] and 38.9 µM [cytotoxic, partial curve, poor fit] | Potency [18] 61.7 µM and 61.6 µM [fluorescent, partial curve, poor fit] | Potency [19] 55 µM [rising, partial curve, poor fit] and 17.4 µM [rising, partial curve, poor fit] | Potency [15] 38.9 µM [cytotoxic, partial curve, poor fit]
active: Potency [4] 27.3 µM and 19.3 µM

Source: PubChem BioAssay (Tox21)
